Assay [1] has as its system HSkMC (human skeletal muscle cells). Briefly: cytotoxicity call (relative viability < 0.9). The following applies: 10 µM.
The test system of assay [2] is HepG2. The assay can be described thus: cytotoxicity call (relative viability < 0.9). The following applies: 10 µM.
Assay [3] relates to S. aureus RN4220. The assay can be described thus: growth inhibition call (relative growth <= 0.2). As to conditions: 50 µM.

The other results are listed elsewhere or left out.

Regarding `C[C@@H]1CN([C@H](C)CO)C(=O)c2cc(NC(=O)Cc3cn(C)c4ccccc34)ccc2O[C@H]1CN(C)CC1CCCCC1`, the cytotoxicity call in assay [1] and in assay [2] was “inactive” throughout. Further, in assay [3], the growth inhibition call was “inactive”.
Turning to `Cc1noc(C)c1NC(=O)N(C)C[C@H]1Oc2ccc(NC(=O)c3ccncc3)cc2CC(=O)N([C@@H](C)CO)C[C@@H]1C`, the cytotoxicity call in assay [1] and in assay [2] was “inactive” in each case. In addition, the growth inhibition call in assay [3] was “inactive”.
`C[C@@H]1CN([C@@H](C)CO)C(=O)c2cc(NC(=O)Nc3ccc(C(F)(F)F)cc3)ccc2O[C@@H]1CN(C)Cc1ccc(Oc2ccccc2)cc1`: the cytotoxicity call in assay [1] and in assay [2] was “active” throughout. For the same compound, the growth inhibition call in assay [3] was “inactive”.
Take `C[C@@H]1CN([C@@H](C)CO)C(=O)CCCn2cc(nn2)CO[C@@H]1CN(C)S(=O)(=O)c1ccc2ccccc2c1`: the cytotoxicity call in assay [1] and in assay [2] was “inactive” in each case. Further, in assay [3], the growth inhibition call was “inactive”.
For `C[C@H](CO)N1C[C@H](C)[C@H](CN(C)S(=O)(=O)c2ccc(Cl)cc2)OCCCC[C@H](C)Oc2ccc(NC(=O)CCC(F)(F)F)cc2C1=O`, the cytotoxicity call in assay [1] and in assay [2] was “inactive” throughout. The growth inhibition call in assay [3] is “inactive”.
For the compound `C=CCNS(=O)(=O)c1cccc2nonc12`, the cytotoxicity call in assay [1] and in assay [2] was “inactive” each time. The growth inhibition call in assay [3] is “inactive”.
`C[C@H]1CN([C@@H](C)CO)S(=O)(=O)c2ccc(-c3cncnc3)cc2O[C@@H]1CN(C)C(=O)Cc1cccnc1`: the cytotoxicity call in assay [1] and in assay [2] was “inactive” throughout. The growth inhibition call in assay [3] is “inactive”.
On to `Cc1noc(C)c1NC(=O)Nc1ccc2c(c1)C(=O)N([C@H](C)CO)C[C@H](C)[C@@H](CN(C)C(=O)Nc1ccccc1)OCCCC[C@H](C)O2`, for which the cytotoxicity call in assay [1] and in assay [2] was “inactive” in each case. Further, the growth inhibition call in assay [3] is “inactive”.
Take `C[C@@H]1CN([C@H](C)CO)C(=O)Cc2cc(NC(=O)C3CC3)ccc2O[C@@H]1CN(C)S(=O)(=O)c1ccccc1`: the cytotoxicity call in assay [1] and in assay [2] was “inactive” each time. Further, in assay [3], the growth inhibition call was “inactive”.
For the compound `CC(C)NC(=O)N(C)C[C@H]1Oc2ccc(NS(=O)(=O)c3ccc(F)cc3)cc2CC(=O)N([C@@H](C)CO)C[C@H]1C`, the cytotoxicity call in assay [1] and in assay [2] was “inactive” in each case. The growth inhibition call in assay [3] was “inactive”.
Take `Cc1noc(C)c1S(=O)(=O)Nc1ccc2c(c1)C(=O)N([C@H](C)CO)C[C@@H](C)[C@H](CN(C)C(=O)Nc1ccc(C(F)(F)F)cc1)OCCCC[C@@H](C)O2`: the cytotoxicity call in assay [1] was “inactive”. In addition, the cytotoxicity call in assay [2] was “active”. Besides, in assay [3], the growth inhibition call was “inactive”.
`CN1CCN(C(=O)C[C@@H]2CC[C@@H](NC(=O)Cc3ccccn3)[C@H](CO)O2)CC1`: the cytotoxicity call in assay [1] and in assay [2] was “inactive” in each case. In addition, in assay [3], the growth inhibition call was “inactive”.
Consider `CC1(C)C(=O)NCCN1C(=O)C1CC1`, for which the cytotoxicity call in assay [1] and in assay [2] was “inactive” each time. Besides, the growth inhibition call in assay [3] was “inactive”.
As to `C[C@@H]1CCCCO[C@@H](CN(C)C(=O)Nc2ccc(C(F)(F)F)cc2)[C@H](C)CN([C@H](C)CO)C(=O)c2cc(NC(=O)c3ccncc3)ccc2O1`, the cytotoxicity call in assay [1] and in assay [2] was “inactive” throughout. In addition, in assay [3], the growth inhibition call is “inactive”.
Turning to `C[C@@H]1CN([C@H](C)CO)S(=O)(=O)c2ccc(-c3cccnc3)cc2O[C@@H]1CN(C)C(=O)NC1CCCCC1`, the cytotoxicity call in assay [1] and in assay [2] was “inactive” in each case. For the same compound, the growth inhibition call in assay [3] is “inactive”.
Regarding `COc1ccc(S(=O)(=O)N(C)C[C@@H]2Oc3c(NS(C)(=O)=O)cccc3C(=O)N([C@H](C)CO)C[C@@H]2C)cc1`, the cytotoxicity call in assay [1] and in assay [2] was “inactive” throughout. In addition, in assay [3], the growth inhibition call is “inactive”.
As to `C[C@@H]1CN([C@@H](C)CO)C(=O)c2cccc(NC(=O)NC3CCCCC3)c2O[C@H]1CN(C)S(=O)(=O)c1cn(C)cn1`, the cytotoxicity call in assay [1] and in assay [2] was “inactive” throughout. Besides, in assay [3], the growth inhibition call was “inactive”.
For `C[C@@H]1CN([C@@H](C)CO)C(=O)c2cc(C#CCN(C)C)cnc2O[C@@H]1CN(C)C(=O)CN1CCOCC1`, the cytotoxicity call in assay [1] and in assay [2] was “inactive” throughout. Also, the growth inhibition call in assay [3] is “inactive”.
With `COc1ccccc1S(=O)(=O)N(C)C[C@@H]1Oc2cc(C#CCC(C)C)ccc2S(=O)(=O)N([C@@H](C)CO)C[C@@H]1C`, the cytotoxicity call in assay [1] and in assay [2] was “inactive” throughout. In assay [3], the growth inhibition call was “inactive”.
Regarding `O=C(N[C@@H]1CC[C@@H](CCNS(=O)(=O)c2ccc(F)cc2)O[C@@H]1CO)C1CC1`, the cytotoxicity call in assay [1] and in assay [2] was “inactive” each time. The growth inhibition call in assay [3] is “inactive”.
For the compound `C=CCOC(=O)[C@H]1[C@@H]2C(=O)O[C@@H](c3ccccc3)[C@@H](c3ccccc3)N2[C@@H](c2ccc(OCCOC(=O)[C@@H]3C[C@@H]4C(=O)N[C@@H](CCCC[N+](C)(C)C)C(=O)N4[C@@H]3c3ccc(O)cc3)cc2)[C@]12C(=O)Nc1ccc(I)cc12`, the cytotoxicity call in assay [1] and in assay [2] was “inactive” each time. Moreover, the growth inhibition call in assay [3] was “inactive”.
As for `O=C(C[C@H]1CC[C@H]2[C@@H](COC[C@@H](O)CN2C(=O)c2ccccc2)O1)NCCCN1CCOCC1`, the cytotoxicity call in assay [1] and in assay [2] was “inactive” in each case. For the same compound, in assay [3], the growth inhibition call was “inactive”.
In the case of `CC(C)NC(=O)N[C@@H]1C=C[C@@H](CC(=O)NCCCN(C)C)O[C@@H]1CO`, the cytotoxicity call in assay [1] and in assay [2] was “inactive” throughout. Besides, the growth inhibition call in assay [3] was “inactive”.
Turning to `C[C@H](CO)N1C[C@H](C)[C@@H](CN(C)S(=O)(=O)c2ccc(F)cc2)Oc2cc(C3=CCCC3)ccc2S1(=O)=O`, the cytotoxicity call in assay [1] and in assay [2] was “inactive” each time. In addition, the growth inhibition call in assay [3] was “inactive”.

Values taken from the antibiotic and cytotoxicity screens of Wong et al. (2023).
